Measurements reported in the supplement of paper PMC3724861.
The other results are listed elsewhere or left out.

What follows are sequences tested on T1, Caupolican (Caup) homeodomain DNA-binding domain (assay: PBM E-score (8-mer, recovered from the published 9-mer minima) (E-score (dimensionless, -0.5 to 0.5)); Drosophila protein; higher = stronger relative binding preference, active = 0.31 or more).
T1 sequence: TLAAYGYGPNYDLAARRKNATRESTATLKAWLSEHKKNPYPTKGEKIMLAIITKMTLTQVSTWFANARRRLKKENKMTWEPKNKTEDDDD
Method in brief: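 Caup's homeodomain DNA-binding domain (residues 214-303) was made by in vitro transcription and translation and applied at 100 nM to custom-designed protein binding microarrays. Each value is an enrichment score that gives relative binding preference for a short DNA word, with higher meaning stronger. The 8-mer values were recovered from published 9-mer scores, each of which was the minimum of its two constituent 8-mer scores. A cutoff of 0.31 marks candidate sites.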

| Sequence | PBM E-score |
| --- | --- |
| ACCTGGTG | inactive: -0.0218 |
| AAAGGAGT | inactive: 0.016 |
| ATCGAGGC | inactive: -0.124 |
| GTGGGCCA | inactive: -0.159 |
| CATCGTCA | inactive: 0.0807 |
| GTTCAGCA | inactive: 0.0779 |
| CCCTCTGA | inactive: -0.158 |
| GTCTGTCA | inactive: 0.182 |
| AGGAAAAG | inactive: 0.0484 |
| AATGGATA | inactive: 0.0292 |
| AACTTTCG | inactive: -0.00535 |
| ACGCCCGC | inactive: -0.227 |
| GATGACAC | inactive: 0.219 |
| CAACGATG | inactive: 0.131 |
| CTCTAGAG | inactive: -0.167 |
| ACTGTTAA | inactive: 0.0659 |
| ACAGCTCT | inactive: -0.0213 |
| CCCTTTAC | inactive: -0.0517 |
| AAAAAGTA | inactive: 0.118 |
| ACTAGAGT | inactive: -0.0164 |
| AACAGTAA | inactive: 0.151 |
| AATCTGCG | inactive: -0.052 |
| AGGTAGAT | inactive: -0.00648 |
| CCCTTCCG | inactive: -0.241 |

| Sequence | PBM E-score |
| --- | --- |
| ATATATCC | inactive: 0.142 |
| ACCGCGGT | inactive: -0.139 |
| TATTAAAA | inactive: 0.0786 |
| GAAGACTC | inactive: -0.0665 |
| GGTCGTAC | inactive: 0.0868 |
| GGGTGGAA | inactive: -0.03 |
| CATTAGGA | inactive: 0.0453 |
| ACCGACGA | inactive: -0.0426 |
| GTCCCGAC | inactive: -0.0659 |
| GTGCTGAA | inactive: 0.0551 |
| GGAAGTAC | inactive: -0.00067 |
| TACCAGTA | ≥ 0.164 |
| ATATCGGC | inactive: 0.00498 |
| CTATCCTC | inactive: -0.139 |
| CATGGGCC | inactive: -0.147 |
| GACGTCGC | inactive: -0.131 |
| GACAAGAA | inactive: 0.297 |
| AAAACCTT | inactive: -0.0528 |
| CCCAACTC | inactive: -0.151 |
| CAAGGTTC | inactive: -0.0588 |
| GATCGTAA | inactive: 0.082 |
| CCGAGATC | inactive: -0.0774 |
| CAGAACCA | inactive: -0.00851 |
| AAAAGATG | inactive: 0.141 |

| Sequence | PBM E-score |
| --- | --- |
| ATTACAGC | inactive: 0.128 |
| ACGCATTG | inactive: 0.0415 |
| ATTAGAAT | inactive: 0.155 |
| AACGCGAT | inactive: 0.0454 |
| CTGCAAAA | inactive: -0.0244 |
| CGCCAGAG | inactive: -0.216 |
| ACAGTACC | inactive: 0.106 |
| ATCGAACC | inactive: -0.0139 |
| ACAACTCG | inactive: 0.229 |
| AGGATTAT | inactive: 0.0036 |
| AGCATACC | inactive: 0.0239 |
| CCAAAAGC | inactive: -0.185 |
| CAGGCATC | inactive: 0.0211 |
| AATGATCT | inactive: 0.0982 |
| GCCTTATA | inactive: -0.054 |
| CGGATGGA | ≥ 0.022 |
| GTGTGGGA | inactive: -0.00973 |
| CGAAAACG | inactive: -0.113 |
| CATTCATC | inactive: 0.0989 |
| TCAGCGGA | inactive: -0.139 |
| CGTCAAAG | inactive: 0.0139 |
| CCTTATAA | inactive: 0.0288 |
| AATATGTG | inactive: 0.259 |
| ACGTACCC | inactive: 0.00217 |

| Sequence | PBM E-score |
| --- | --- |
| CACAGTCA | inactive: 0.0769 |
| CATTTACC | inactive: 0.152 |
| AGCATGAG | inactive: 0.104 |
| CGTTTCAG | inactive: -0.0507 |
| CGAGTATC | inactive: -0.0742 |
| ATCCCGGA | inactive: -0.045 |
| CAACCAGC | inactive: 0.0253 |
| ACAGGGGG | inactive: -0.181 |
| GCGCCAGC | inactive: -0.258 |
| GGCTGCCC | inactive: -0.363 |
| GAATTACC | inactive: 0.0891 |
| GTACGGAC | inactive: 0.0959 |
| ACGAGCGG | inactive: -0.0452 |
| AGGAGCGC | inactive: -0.19 |
| GGCTGATA | inactive: 0.0181 |
| CCGGTTGA | inactive: -0.111 |
| GGGGATTA | inactive: -0.0502 |
| TGCAAAAA | inactive: 0.0586 |
| ATCGTGGC | inactive: -0.0433 |
| ATTTCTCG | ≥ 0.0689 |
| AGCTCTGA | inactive: -0.0958 |
| AATAGCAT | inactive: 0.135 |
| GCTAGTCC | inactive: -0.0319 |
| AGCGACCT | inactive: -0.0697 |

| Sequence | PBM E-score |
| --- | --- |
| AATTCTCA | inactive: 0.0607 |
| AAAGAAAG | inactive: -0.0768 |
| AGACGACC | inactive: -0.113 |
| AGGTGGAG | inactive: -0.0813 |
| CTAGCTAG | inactive: 0.0575 |
| GAAACAAA | inactive: 0.203 |
| CGATGCGA | inactive: -0.14 |
| GAAGTTCA | inactive: -0.00306 |
| AACCGCGC | inactive: -0.103 |
| AGGGCCGC | inactive: -0.251 |
| ACTTTCGC | inactive: -0.0524 |
| AACCAGGT | inactive: 0.0425 |
| CTCTGGGA | inactive: -0.227 |
| AGTGGGCA | inactive: -0.0967 |
| AGTCCACC | inactive: -0.0521 |
| AAGAAGAG | inactive: -0.0933 |
| GAAATACA | inactive: 0.263 |
| GTGGTCAA | inactive: -0.0171 |
| CGAGATAC | inactive: 0.142 |
| ACGCGAAC | inactive: -0.0449 |
| GCGACGCA | inactive: -0.023 |
| TGTACTAA | inactive: 0.279 |
| ACCATGGA | inactive: 0.0206 |
| GCGTGGAC | inactive: -0.0872 |

| Sequence | PBM E-score |
| --- | --- |
| CGTGTCTA | inactive: 0.267 |
| CTAACTGA | inactive: 0.0488 |
| AGCTTTTA | inactive: -0.0204 |
| CGGGCTAC | inactive: -0.128 |
| CAAGTAGC | inactive: 0.108 |
| ATAATTCG | inactive: 0.113 |
| CGTCCACG | inactive: -0.0892 |
| GATCAATA | inactive: 0.0795 |
| AGAAACTA | inactive: 0.0526 |
| CTCAGCTA | inactive: -0.122 |
| AGGAACAT | active: 0.339 |
| TATGAGAA | inactive: 0.102 |
| CTCACCAG | inactive: -0.105 |
| ACCAAGTC | inactive: -0.0398 |
| CGGTGCAA | inactive: 0.0179 |
| ACGCATGA | inactive: 0.0194 |
| TGAGCACA | inactive: 0.0593 |
| CAATTCAC | inactive: 0.111 |
| CCTCACGC | inactive: -0.0937 |
| ACGTACCT | inactive: 0.0612 |
| AATTCCGT | inactive: 0.0876 |
